Test results as given in the supplement of paper PMC12645437, “Orthogonal IMiD-Degron Pairs Induce Selective Protein Degradation in Cells” (ACS Chemical Biology, 2025).
The list shows a part of the results.

Target: no compound (DMSO)
Experiment: log2 fold change of degron read counts, EGFP-low vs EGFP+ sorted cells; higher = lower degron-EGFP level without compound (poor expression or instability)
Conditions: compound: DMSO control; 18 h
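Also: jurkat cells carrying a lentiviral library of mutant zinc finger degrons fused to EGFP plus mCherry, mCherry+ cells FACS sorted, degron abundance counted by next-generation sequencing.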

Sequence	log2 fold change of degron read counts
FGCPICGATFTQKGNLLRHIKL	-0.404
FICPICGHGFTQKGNLLRHIKL	0.233
FSCEQCGAQFTQKGNLLRHIKL	-3.15
FKCDQCGATFTQKGNLLRHIKL	-1.63
LHCPICGFACTQKGNLLRHIKL	0.531
FKCEICGHNFTQKGNLLRHIKL	-1.42
FFCEQCGAHFTQKGNLLRHIKL	-1.33
FMCEICGATFTQKGNLLRHIKL	-1.81
FQCNQCGRKFTQKGNLLRHIKL	-3.07
FCCDVCGANFTQKGNLLRHIKL	-1.74
FLCNVCGARFTQKGNLLRHIKL	-0.907
FLCPICGAIFTQKGNLLRHIKL	0.692
FHCNICGAAFTQKGNLLRHIKL	-0.93
FCCDQCGALFTQKGNLLRHIKL	-1.68
FKCPICGHMFTQKGNLLRHIKL	-0.875
FKCEICGRGFTQKGNLLRHIKL	-1.24
FYCPICGREFTQKGNLLRHIKL	-0.354
FTCSVCGHFFTQKGNLLRHIKL	0.406
FLCEICGHPFTQKGNLLRHIKL	-0.603
FFCDQCGAEFTQKGNLLRHIKL	-1.56
FWCPQCGADFTQKGNLLRHIKL	-0.309
FSCNQCGRFFTQKGNLLRHIKL	0.444
FRCNQCGANFTQKGNLLRHIKL	-0.525
LWCNQCGFTCTQKGNLLRHIKL	1.69
FFCNQCGAGFTQKGNLLRHIKL	-0.172

Sequence	log2 fold change of degron read counts
FWCPICGRSFTQKGNLLRHIKL	-0.117
FSCSVCGHRFTQKGNLLRHIKL	0.0181
FSCEICGHQFTQKGNLLRHIKL	-2.78
FWCPICGRTFTQKGNLLRHIKL	0.481
FLCPICGRGFTQKGNLLRHIKL	-0.421
FCCSVCGHMFTQKGNLLRHIKL	0.124
FVCPICGADFTQKGNLLRHIKL	-1.19
FCCDICGAVFTQKGNLLRHIKL	-1.7
FTCEVCGAVFTQKGNLLRHIKL	-0.926
LNCEICGFSCTQKGNLLRHIKL	-0.347
FDCSVCGHTFTQKGNLLRHIKL	-0.918
LQCNQCGFQCTQKGNLLRHIKL	-0.0555
FRCEICGHTFTQKGNLLRHIKL	-1.86
LECNQCGFRCTQKGNLLRHIKL	-0.409
FACNVCGAEFTQKGNLLRHIKL	-1.17
FTCNICGAKFTQKGNLLRHIKL	-0.841
FHCNVCGAIFTQKGNLLRHIKL	0.358
FRCPQCGADFTQKGNLLRHIKL	-1.71
FLCEICGAQFTQKGNLLRHIKL	-2.24
LTCEICGFCCTQKGNLLRHIKL	-0.512
FDCPICGRYFTQKGNLLRHIKL	0.765
FMCPQCGARFTQKGNLLRHIKL	-0.646
FLCEICGAHFTQKGNLLRHIKL	-1.77
FMCPQCGAMFTQKGNLLRHIKL	-0.0818
FICEICGHHFTQKGNLLRHIKL	-1.57
